Data from PMC3029397, “Bifunctional Avidin with Covalently Modifiable Ligand Binding Site” (PLoS ONE, 2011).

Target: the molecule itself
Assay: SDS-PAGE-based thermostability assay; with D-biotin; samples acetylated in vitro, heated 20 min at temperatures between RT and 100°C in SDS-PAGE buffer with β-mercaptoethanol, 15% SDS-PAGE, Coomassie staining

B1: wild type avidin (natural protein)
chain: QTVARKCSLTGKWTNDLGSNMTIGAVNSRGEFTGTYITAVTATSNEIKESPLHGTQNTINKRTQPTFGFTVNWKFSESTTVFTGQCFIDRNGKEVLKTMWLLRSSVNDIGDDWKATRVGINIFTRLRTQKE
modifications: N-terminal glutamine partly cyclised to pyrrolidone carboxylic acid (PCA); intramolecular disulfide Cys4-Cys83; acetylated in vitro for the SDS-PAGE thermostability assay
notes: avidin; theoretical mass with QTV and one disulfide 14668.43 Da; numbers count on: the mature protein (QTV numbered -3 to -1); Expressed from pET101/D-TOPO behind the B. avium OmpA signal peptide; also called wt avidin; Avd
  binding result: binds

B2: Avd(S16C) (natural protein)
chain: QTVARKCSLTGKWTNDLGCNMTIGAVNSRGEFTGTYITAVTATSNEIKESPLHGTQNTINKRTQPTFGFTVNWKFSESTTVFTGQCFIDRNGKEVLKTMWLLRSSVNDIGDDWKATRVGINIFTRLRTQKE
modifications: N-terminal glutamine partly cyclised to pyrrolidone carboxylic acid (PCA); intramolecular disulfide Cys4-Cys83; acetylated in vitro for the SDS-PAGE thermostability assay
notes: avidin with S16C; theoretical mass with QTV and one disulfide 14684.41 Da; numbers count on: the mature protein (QTV numbered -3 to -1); Expressed from pET101/D-TOPO behind the B. avium OmpA signal peptide; also called avidin S16C
  binding result: binds
